# ± gives the standard deviation of the averaged measurements. Over roughly 33,000 sequences, “E-score (dimensionless, -0.5 to 0.5)” has its median near -0.046; the highest 2% begin near 0.36. This is one part of the list.
# Tested on: T1, SpTbr T-box DNA-binding domain (GST fusion)
# T1 sequence: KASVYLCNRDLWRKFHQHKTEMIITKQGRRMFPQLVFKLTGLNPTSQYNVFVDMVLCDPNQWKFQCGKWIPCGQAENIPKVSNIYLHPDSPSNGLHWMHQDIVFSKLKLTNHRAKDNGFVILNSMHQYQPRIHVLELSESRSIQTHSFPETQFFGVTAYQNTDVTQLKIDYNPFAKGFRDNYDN
# Experiment: PBM E-score of 8-mer (E-score (dimensionless, -0.5 to 0.5)); Tbr is Tbrain of the sea star Patiria miniata (Pm) or the sea urchin Strongylocentrotus purpuratus (Sp); higher = stronger binding preference; most listed sequences are background and not binding sites
# Details: the construct has about 5 more residues each side
# Method: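 Universal protein-binding microarray (Agilent AMADID 016060, 60-bp probes with a 35-bp variable region) incubated with 200 nM GST-fused Strongylocentrotus purpuratus Tbr T-box DNA-binding domain (residues 362-554) in PBS pH 7.5. Scored for every ungapped 8-mer (given with its reverse complement) as E-score (range -0.5 to 0.5; >0.45 counts as bound) and Z-score of median probe intensity. Two replicate arrays (datasets 1 and 2).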
# 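Note: protein at 200 nM in PBS on universal double-stranded arrays.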
row,Sequence,PBM E-score of 8-mer
1,CAACGGTC,0.11 ± 0.036
2,AGAGGCGA,0.125 ± 0.098
3,AGAGGCAA,-0.0855 ± 0.046
4,GAGCAATC,-0.198 ± 0.095
5,GGAGGCCA,-0.297 ± 0.036
6,ACCTTCTA,0.0656 ± 0.0091
7,GCCCCATA,-0.112 ± 0.064
8,GCTAGGAA,-0.0544 ± 0.06
9,CCTACGCG,0.175 ± 0.0086
10,AGTGCTCG,-0.00167 ± 0.023
11,CCAACAGA,0.00743 ± 0.094
12,CACCTACC,0.394 ± 0.01
13,CAGAAAAA,-0.204 ± 0.0081
14,CGGGTTTA,-0.109 ± 0.055
15,AGCGGGGA,-0.0886 ± 0.064
16,ACACCGCT,0.187 ± 0.033
17,CATTCTAG,-0.179 ± 0.09
18,ATCTCGAG,-0.0365 ± 0.083
19,GGGCTAAA,-0.183 ± 0.046
20,CTCGTGAC,0.195 ± 0.027
21,ACGACCAA,-0.174 ± 0.0045
22,GGACCTAC,-0.168 ± 0.0051
23,CACAGAGG,0.0136 ± 0.014
24,ACACTTCG,0.409 ± 0.0085
25,CCTGGCCG,-0.106 ± 0.028

row,Sequence,PBM E-score of 8-mer
1,AAATTTCT,-0.224 ± 0.1
2,CCTATGCA,-0.195 ± 0.048
3,GCTTGGAA,-0.304 ± 0.047
4,AGGTAATG,-0.19 ± 0.11
5,AATTTAAA,-0.142 ± 0.0048
6,CCACACGC,0.264 ± 0.039
7,GACCACGC,0.102 ± 0.094
8,TCTCGCCA,0.238 ± 0.035
9,CGTGCTAC,0.128 ± 0.0037
10,ACCTGGTC,-0.0159 ± 0.014
11,CAAGTAAA,-0.0256 ± 0.017
12,CGTTGTTC,-0.116 ± 0.067
13,CTGGTAGA,-0.113 ± 0.059
14,CGGGGTAA,-0.0503 ± 0.11
15,CCATCCAA,-0.236 ± 0.026
16,CATTCGGA,-0.368 ± 0.051
17,ACAATTTC,-0.049 ± 0.014
18,ATCTGCCG,-0.21 ± 0.071
19,GCTTCCGA,-0.23 ± 0.022
20,CTCTGTAA,0.0333 ± 0.012
21,ATATGGTG,0.167 ± 0.012
22,GACCAGTA,-0.334 ± 0.0039
23,CCAACTTC,-0.0265 ± 0.019
24,ACCCCCAG,-0.141 ± 0.027
25,GTGAATTA,0.2537 ± 0.00099

row,Sequence,PBM E-score of 8-mer
1,CTTAGAGC,-0.154 ± 0.046
2,AGCTTCCA,-0.199 ± 0.044
3,ACAGAGGT,0.109 ± 0.051
4,CGTTGAAC,-0.0986 ± 0.0057
5,GGGTGGTA,0.11 ± 0.029
6,AGCGATAA,0.11 ± 0.049
7,ACAGGCCT,-0.2194 ± 0.0011
8,CGTAACAC,0.3104 ± 0.0022
9,AAGTAGGG,-0.249 ± 0.0035
10,CAACCTAC,0.0733 ± 0.011
11,AACTTTTC,0.0515 ± 0.043
12,AGGGCCGG,-0.202 ± 0.022
13,AACTGGGC,-0.112 ± 0.0045
14,AACATCCC,-0.0172 ± 0.0071
15,GGGACGCA,-0.0288 ± 0.0073
16,CAGTATTA,-0.128 ± 0.043
17,ACGAGAAT,0.0428 ± 0.0091
18,AATTGACC,-0.257 ± 0.062
19,CGCACTAG,0.127 ± 0.038
20,CTATCCCC,-0.125 ± 0.02
21,CGCTCTAG,0.151 ± 0.055
22,CAGGACGA,-0.18 ± 0.01
23,AGGTTCCC,-0.21 ± 0.036
24,AAACTGCA,-0.132 ± 0.12
25,ACCGGAAG,0.0124 ± 0.045

row,Sequence,PBM E-score of 8-mer
1,AGAGCTAT,-0.0799 ± 0.044
2,CCTACTGC,-0.0828 ± 0.017
3,CATCCCTA,-0.192 ± 0.0054
4,GTCTACAC,0.305 ± 0.024
5,AACTAACA,0.214 ± 0.0048
6,AATATCCG,-0.204 ± 0.02
7,GTCAGTAA,0.139 ± 0.037
8,AGTAACCA,-0.0145 ± 0.0049
9,AACCACTC,-0.0818 ± 0.029
10,CGAGCGAC,0.137 ± 0.086
11,AAGCATCT,-0.1465 ± 0.0013
12,CCCTATCA,0.0101 ± 0.042
13,ACAATTGT,0.189 ± 0.12
14,ACCTATGA,-0.0199 ± 0.011
15,GGGCTTAC,-0.179 ± 0.063
16,AAGGTGTG,0.4816 ± 0.0018
17,CCCCTCAA,-0.0881 ± 0.025
18,CTACGTCC,-0.0646 ± 0.097
19,GTACCCCA,-0.151 ± 0.0011
20,ACAGGGCT,-0.316 ± 0.0043
21,ACATTACC,-0.123 ± 0.062
22,ACGTAGCC,-0.173 ± 0.05
23,ATTTAAGA,-0.171 ± 0.0076
24,ATTAGCCA,-0.143 ± 0.042
25,GTCTATCA,-0.154 ± 0.035

row,Sequence,PBM E-score of 8-mer
1,CCGGGGAC,-0.204 ± 0.11
2,ACAGGAAA,-0.082 ± 0.075
3,ACCTCGAA,0.131 ± 0.021
4,ACATGATA,-0.0776 ± 0.018
5,GCTGTTCA,0.065 ± 0.028
6,ACAGAATA,-0.196 ± 0.035
7,GAATACAC,-0.00509 ± 0.048
8,GCAAGTGA,0.274 ± 0.015
9,TAGGACAA,-0.145 ± 0.091
10,AGGTTACA,0.0184 ± 0.028
11,CCCGTGGC,0.00164 ± 0.026
12,GCCACCTA,0.285 ± 0.036
13,AATCCAAA,0.036 ± 0.035
14,CATGGGCA,-0.0485 ± 0.0061
15,GTGCAGCA,-0.173 ± 0.0097
16,AATTCACG,0.345 ± 0.01
17,CCAAGTGC,0.32 ± 0.033
18,GACCCGGA,-0.0041 ± 0.034
19,GACATGGC,-0.266 ± 0.056
20,CATACCCG,0.0224 ± 0.064
21,GGAATCAA,-0.0726 ± 0.0034
22,ACACGCCC,0.16 ± 0.025
23,GAGTACAA,-0.0957 ± 0.051
24,ATAGTGAA,0.0382 ± 0.012
25,CGGACAAC,-0.0656 ± 0.02

row,Sequence,PBM E-score of 8-mer
1,CCCGAGCA,-0.282 ± 0.017
2,CGAACGGA,-0.0224 ± 0.087
3,CACATGAC,0.211 ± 0.02
4,AATAATGT,-0.0989 ± 0.12
5,AAAAGCTG,-0.0405 ± 0.066
6,ACAAACAT,0.0766 ± 0.034
7,CCAGAGTC,-0.184 ± 0.012
8,GTAACGCA,0.162 ± 0.055
9,ACACGGGT,0.165 ± 0.015
10,ATTCAGTA,-0.243 ± 0.018
11,ATGTCTTA,-0.124 ± 0.012
12,CCAGCTAA,-0.0736 ± 0.034
13,GACCGGCA,0.0692 ± 0.091
14,GTGATGAA,0.253 ± 0.013
15,ACCTACAC,0.13 ± 0.011
16,TCCCAAGA,-0.0198 ± 0.058
17,GTAATGCA,-0.234 ± 0.038
18,CGCGTTTC,0.0215 ± 0.06
19,AGCGGTGC,-0.00638 ± 0.018
20,GATATTAC,-0.119 ± 0.007
21,CATGCAGA,-0.219 ± 0.036
22,AATCGTAT,-0.121 ± 0.03
23,CTAGGCTA,0.0202 ± 0.051
24,AGCGGCAC,0.159 ± 0.065
25,AGGTGTAG,0.3922 ± 0.0034

row,Sequence,PBM E-score of 8-mer
1,AAATATTC,-0.244 ± 0.0027
2,GGGTAACC,-0.134 ± 0.014
3,CGAGTAAA,0.00249 ± 0.012
4,GTCTGGGA,-0.214 ± 0.06
5,AAATAGAA,-0.277 ± 0.067
6,CCCTTGGC,0.0774 ± 0.088
7,CGATTTAG,-0.0612 ± 0.0077
8,GGCACTAC,-0.0662 ± 0.00069
9,AAGTCGGT,0.0854 ± 0.011
10,GCGCTAAA,0.338 ± 0.014
11,GTTCGTTA,0.00848 ± 0.029
12,CGGTTGAG,-0.0815 ± 0.017
13,GAGTCGCC,0.00444 ± 0.029
14,ACTATTCC,-0.116 ± 0.015
15,ATGTGCGG,0.0899 ± 0.0075
16,GGTACTGA,-0.184 ± 0.048
17,GGCCGAGA,0.045 ± 0.022
18,TGCTGGAA,-0.174 ± 0.047
19,ACCTTGCC,0.0093 ± 0.0029
20,ACGCCAAC,0.144 ± 0.021
21,GGCGTTGA,0.344 ± 0.013
22,CAACACAG,0.237 ± 0.047
